Experimental data reported in the RNAGym collection of RNA variant scans (doi:10.7554/elife.90254).
The source gives no read counts; variants with many changes may rest on few reads.

B1: LINE1-mini (parent)
chain: GGCAGAGCUCAACACAGCGUGGCAAAGUGGCUGUGGCUAGACUGCC

Variants of: B1
Test: self-cleavage, relative activity (ratio to wild type); higher = more cleavage; in vitro, sequencing; the parent is a self-cleaving ribozyme
In the case of A6G G17A G19A C46A, the self-cleavage is reported as 0. A4G C8A U20G gave a self-cleavage of 0.04. With G2A C3U A11C G21A C37U the self-cleavage was 0.04. In the case of C10G C23G G27C G35C C37A, the self-cleavage is reported as 0. Work on G1A U9C G19A A24G C45U C46G yielded a self-cleavage of 0.07. For C13G A14U G22A, the self-cleavage was 0.04. With C31U U34A G40U the self-cleavage was 0.01. Work on U9C A26U U32G yielded a self-cleavage of 0.07. With C13G A25C C37A G40A the self-cleavage was 0.32. Variant C8A A11C A41C C42G has a self-cleavage of 0.03. Variant A11G A14C C15U has a self-cleavage of 0.03. Work on C15A G27U C37A C45G yielded a self-cleavage of 0.03. In the case of C10A U20A U34C A41C, the self-cleavage is reported as 0.01. For C10A A16U A24U G30U C46A, the self-cleavage was 0.02. With G27C U34G C46G the self-cleavage was 0.21. With A4G G21U C31G the self-cleavage was 0.18. A14C G17U C42G gave a self-cleavage of 0.18. For G2U G36U A39U, the self-cleavage was 0.05. For G21U U28C U34C U38G, the self-cleavage was 0. G1A C8A C18A A26U gave a self-cleavage of 1.14. In the case of U9A A11G A14G C45U, the self-cleavage is reported as 0.02. Work on G1U C10U C13A C18U G22U yielded a self-cleavage of 0.03. Variant C10U A12G A24U has a self-cleavage of 0.02. For G30U A41U C45U C46A, the self-cleavage was 0.39. A14C G21U C46U showed a self-cleavage of 0.01. G5A A6C C10G A24U A26C C42A showed a self-cleavage of 0.02. For G2U A12C U32A, the self-cleavage was 0. G2C C15G U32A showed a self-cleavage of 0.02. G7U U9A A39C A41G gave a self-cleavage of 0.08. G2U A11U G21C gave a self-cleavage of 0.05. With G22C G35U C37G the self-cleavage was 0.03. C3A U9C A11U U43C gave a self-cleavage of 0.03. C3U A6U U34G G35U gave a self-cleavage of 0.09. A26U G27A G30C U38A gave a self-cleavage of 2.39. With G5C C10A U34G A41G the self-cleavage was 0. Variant C13U C15U A16C has a self-cleavage of 0.28. With C3A G7U A11U C31U G36U C42A the self-cleavage was 0.03. G2A A41C C45A gave a self-cleavage of 0.06. A16C U20A A24G gave a self-cleavage of 0.03. For C3U G17U G33U, the self-cleavage was 0.06. For C13G A25G G29C C42U, the self-cleavage was 0.08. Work on C8A A14G G17U G33U yielded a self-cleavage of 0.13. Variant C3A A16C G21U C23G has a self-cleavage of 0.64. In the case of A4C C15U U38C, the self-cleavage is reported as 0.68. For G7U G17U G40U U43C, the self-cleavage was 0.46. For G2C C10A G19A A26G, the self-cleavage was 0.02. In the case of G1A G7A C8A U9G C18G U32A A39C, the self-cleavage is reported as 0.18. C10U G21U G40A showed a self-cleavage of 0.02. Variant C3G A16G C23G G44U has a self-cleavage of 0.15. U9A A14U G44C showed a self-cleavage of 0.16. Variant A14G U20A C31G U38A G40C has a self-cleavage of 0.02. In the case of C8A C13A A25G G33U G44A, the self-cleavage is reported as 0.7. In the case of G7C A16G G19U G29A C31A, the self-cleavage is reported as 0.06. In the case of C18A G30U U32A, the self-cleavage is reported as 0.04. C10G A14C G19A U28C G30A C45G gave a self-cleavage of 0.02. G2C C8G A14G G35A gave a self-cleavage of 0.14. G5C G17C C18A G30A G35U gave a self-cleavage of 0.03. Work on G21A A26U G40U yielded a self-cleavage of 0.04. Variant A26G U32A C46U has a self-cleavage of 0.02. In the case of A6U G7A G17A C42U, the self-cleavage is reported as 0.02. In the case of C18U U20A C23A A25G, the self-cleavage is reported as 0.64. Variant C8G U28G A41C C46U has a self-cleavage of 0.07. Variant C8A A16C U20A has a self-cleavage of 0.1. With A6U C13U C18G U38A G44U the self-cleavage was 0.02. In the case of A14U A16C C45G, the self-cleavage is reported as 0.15. With U20G G29C G35U C42U C45U the self-cleavage was 0. Variant G5C G40C U43A G44C C45U has a self-cleavage of 0.01. With U32C A39C G44U the self-cleavage was 0.01. For G2U G21C C23A G30U, the self-cleavage was 0.04. U20G U32A U38A showed a self-cleavage of 0.17. With A4G U9A A24C G29C A39G C45G the self-cleavage was 0.14. For C10A C31G C42A, the self-cleavage was 0.01. G1U G21U C31U G44A gave a self-cleavage of 0. Work on A12G C31U C37U yielded a self-cleavage of 0.11. With A16U G29A U38A A41C C42U the self-cleavage was 0.03. With C3A C23U G27U the self-cleavage was 0.47. With G33U C45A C46A the self-cleavage was 0.05. Variant C13A C15G G30C has a self-cleavage of 0.02. Work on U9A A12U C15A A41C G44U yielded a self-cleavage of 0.02. For C3A G7U C46G, the self-cleavage was 0.18. Variant C3A G17U U43C has a self-cleavage of 0.17. With C8G G30U A39G C46U the self-cleavage was 0.04. G1A A6C A41G C42G gave a self-cleavage of 0.05. Variant A16G G36A G40U has a self-cleavage of 0.07. C8G A14C G22U A26U gave a self-cleavage of 0.04. In the case of G7A C13A A25C G29U, the self-cleavage is reported as 0.18. For A4U C8A A24G A26C C31U C46A, the self-cleavage was 0.01. Work on G2A G17A G19U U20G A24C yielded a self-cleavage of 0.08. Variant A11U G19U G22A C42A has a self-cleavage of 0.02. In the case of A16C C18A U34C C45U, the self-cleavage is reported as 0.02. In the case of G2U C18A G35U, the self-cleavage is reported as 0.01. U20A A24U G36C showed a self-cleavage of 0.04. In the case of G21U U28A G29A, the self-cleavage is reported as 0.53. In the case of G1U C23A C31U, the self-cleavage is reported as 0.1. In the case of G1U G2C C13U A16G, the self-cleavage is reported as 0.08. For G1U G17A A26U U38C U43G, the self-cleavage was 0. Work on C8U C31G U38A yielded a self-cleavage of 0.04. A4C A11C A26U gave a self-cleavage of 0.03. In the case of A11U A12G G33A C46A, the self-cleavage is reported as 0.02. G1C C3U G7C A16U showed a self-cleavage of 0.12. For G22U C37A U38A, the self-cleavage was 0.05. For G1C G5A G29A, the self-cleavage was 0.08. Variant C23A G30A U32C has a self-cleavage of 1.05. With C8A C18A U32G the self-cleavage was 0.14. For A4U A6U C10A C15A, the self-cleavage was 0.01. Work on C3U G5A G27U G36A yielded a self-cleavage of 0.39. A12U C13A U32A C45G C46A gave a self-cleavage of 0.08. Variant A14C C18G U34A has a self-cleavage of 0.03. For A12C A14C C31G, the self-cleavage was 0. Variant G1C G30U C31A G36A U38G A39U has a self-cleavage of 0.07. Work on C10A A14U A16C U28G yielded a self-cleavage of 0.01. A26U G33U U34A showed a self-cleavage of 0.11. With A4G A12U G29C the self-cleavage was 0.03. Work on A6G G22C A25U G36U C42U U43A yielded a self-cleavage of 0.04. For A6U C10A C37A, the self-cleavage was 0.01. For C3G A39U C42A, the self-cleavage was 0.06. Variant C8G C10U C18G G19A has a self-cleavage of 0.04. C3A A11U C13G C18U G19C A26G C42G showed a self-cleavage of 0. With A6C A12G G19U C37U A41C the self-cleavage was 0.01. G5C A39U G40C showed a self-cleavage of 0.05. In the case of G22A U38C G44A, the self-cleavage is reported as 0.56. Variant A16U A26U U34C U38G has a self-cleavage of 0.01. G27C C31G G36A showed a self-cleavage of 0.08. A4C U28G C31A G35C C37A gave a self-cleavage of 0.03. Variant A16U G36C U43A has a self-cleavage of 0.05. A6C C15A G27C gave a self-cleavage of 0.03. For G22A U43C C45U, the self-cleavage was 0.31. Variant G5A A14U G21C A24U C37U G40U A41U has a self-cleavage of 0.14. With G7U G29A A39G the self-cleavage was 0.03. Variant C37A C42A C45A has a self-cleavage of 0.04. A4U G30U G40A showed a self-cleavage of 0.04. In the case of C3G A12C A39C G44A, the self-cleavage is reported as 0.01. Work on C10A A14U G44U yielded a self-cleavage of 0.01. For A4C U34A G35C, the self-cleavage was 0.09. Work on C13U U20G C31G G44U C46A yielded a self-cleavage of 0.01. C3A A4C G21C U32C showed a self-cleavage of 0.02. Work on G7A A16U U32G G35C G40C yielded a self-cleavage of 0.11. With G1U C18G G22A A25U the self-cleavage was 0.55. Variant C3G C23U A39U C45A has a self-cleavage of 0.05. In the case of G5A C8A A16C U32A, the self-cleavage is reported as 0.14. G2U C3U U9C A12U G22U gave a self-cleavage of 0.03. U20A G22U U34G gave a self-cleavage of 0.18. G2C G7C C18A C46U gave a self-cleavage of 0.09. In the case of G19U U28G C31U, the self-cleavage is reported as 0.61. In the case of A4G G33C U34G C45A, the self-cleavage is reported as 0. C3G A12G G35C gave a self-cleavage of 0.09. G1C A11G C18G G35U C45A showed a self-cleavage of 0. G1U C8G A12C G35U gave a self-cleavage of 0.01. Work on C3U A4G C13G yielded a self-cleavage of 0.1. Work on C8U U9C C15A G27U G40A yielded a self-cleavage of 0.04. Variant C13A A25U C31A C37U U38G has a self-cleavage of 0.08. In the case of A4C U28A U34A U43C G44U C46A, the self-cleavage is reported as 0.03. For G19A U20A C31A A39G, the self-cleavage was 0.04. With C8U U32C C42G the self-cleavage was 0.43. A4C A6C A12C U32A A39U showed a self-cleavage of 0.02. For C37U A41C C42U, the self-cleavage was 0.01. Variant G17A G30U G44U has a self-cleavage of 0.02. In the case of A12C C37U U43C, the self-cleavage is reported as 0. Work on G5C G29A C31G yielded a self-cleavage of 0.04. For G5U G22C G27C G35U, the self-cleavage was 0.02. Variant C3A U34C U38G has a self-cleavage of 0.04. For C10U U28A A39U, the self-cleavage was 0.2. A4G U9G A12U G21U gave a self-cleavage of 0.06. In the case of U9A G21A G30C, the self-cleavage is reported as 0.11. For G1A C3A G19U, the self-cleavage was 0.24. U20G G22U U38C gave a self-cleavage of 0.2. G7C C8U C13U showed a self-cleavage of 0.32.
